Screen size: about 45,000 compounds; about 200 (0.44%) were called active. Another 7% or so got no clear call; they are omitted. Calls come from the whole dose curve; as a rule, active = well fitted activation curve with a large enough effect; inconclusive = small, poorly fitted or top-dose-only effect; inactive = no such curve, though single readings can be large or run the other way. The list shows a part of the results.
Experiment: qHTS of TDP-43 Inhibitors: NCGC Sytravon Library Screen; note: 0% is about no effect; nearly all actives have a fitted effect of over 55% in size
Details: yeast TDP-43 toxicity rescue, BacTiter-Glo growth, 24 h; series mostly up to 46.1 µM; growth rescue (activation): at the top concentration
How it was run: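 TDP-43-expressing yeast, pregrown in raffinose, seeded at OD600 0.02 in galactose medium with compound for 24 hr at 30 deg C. Growth read by BacTiter-Glo luminescence, so rescue of toxicity appears as activation.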

Structure (SMILES) | growth rescue (activation)
COc1cc2c(cc1OC)CN(C(=O)c1ccc(S(=O)(=O)N(C)c3ccccc3)cc1)CC2 | inactive: 5.78%
CO/N=C(\N)c1nonc1N | inactive: 6.54%
C=CCN(c1ccccc1)S(=O)(=O)c1cc(C(=O)NC2=NCCS2)ccc1Cl | inactive: -7.06%
O=C(CNC(=O)c1ccco1)N/N=C/c1ccc(O)c([N+](=O)[O-])c1 | inactive: -7.28%
COc1ccc(C(=O)COC(=O)c2ccccc2NS(=O)(=O)c2ccc(O)c([N+](=O)[O-])c2)cc1 | inactive: 10%
CN(CC(=O)Nc1ccc(Cl)c(C(F)(F)F)c1)C(=O)c1cnccn1 | inactive: -6.84%
CCn1c(=O)cc(SCC(=O)NCCCN2CCC(C)CC2)c2ccccc21 | inactive: 5.09%
Cc1ccnc(N2CCC(C(=O)NNC(=O)c3ccncc3)CC2)n1 | inactive: -7.7%
Cc1nn(-c2ccc(F)cc2)c(C)c1CN1CCN(Cc2ccccc2)C(CCO)C1 (stereo not drawn) | inactive: -6.06%
COc1ccc(C(C)(NC(C)=O)c2nc(-c3ccc(S(C)(=O)=O)cc3)cs2)cc1 (stereo not drawn) | inactive: 12.5%
O=C(N/N=C\c1ccc(-c2ccc(Cl)c(Cl)c2)o1)C(=O)N1CCCC1 | inactive: 8.2%
O=C(NCc1ccc2c(c1)OCO2)C1CCCN1C(=O)Nc1ccc(Cl)cc1 (stereo not drawn) | inactive: 5.3%
O=C(NCCCNc1ccc([N+](=O)[O-])cc1)C(F)(F)F | inactive: 17.4%
COc1ccc2c(c1)CCc1sc(NC(=O)c3ccc(C)cc3)nc1-2 | inactive: -12.2%
COc1cccc(OC)c1C(=O)OCC(=O)N1CCC(Cc2ccccc2)CC1 | inactive: -7.12%
COc1ccc(CC(=O)Nc2ccc(N3CCCC3)c(C)c2)cc1 | inactive: 5.49%
CS(=O)(=O)N1CCN(c2ccc(Cl)cc2[N+](=O)[O-])CC1 | inactive: 20.1%
CN(C)C=NC(=O)c1ccc(N2CCN(c3ncc(C(F)(F)F)cc3Cl)CC2)cc1 | inactive: -15.6%
CC(=O)Nc1ccc(NC(=O)CCCCCn2nnc3ccccc3c2=O)cc1 | inactive: -11.3%
O=S(=O)(NCc1ccccc1F)c1cccc(S(=O)(=O)N2CCOCC2)c1 | inactive: 2.88%
CC1(C)Cc2c(cnn2-c2ccccc2)C(NC(=O)CCc2ccc(=O)[nH]n2)C1 (stereo not drawn) | inactive: 18.7%
O=C(COC(=O)c1cc(S(=O)(=O)N2CCOCC2)ccc1F)Nc1cc([N+](=O)[O-])ccc1F | inactive: 32%

Structure (SMILES) | growth rescue (activation)
CCCCCCCCC/C(=N\O)c1ccccn1 | inactive: -92.1%
CC1CCCC(C)N1C(=O)COC(=O)/C=C/c1ccco1 (stereo not drawn) | inactive: 20.2%
O=C(CCCN1C(=O)S/C(=C\C=C\c2ccccc2)C1=O)Nc1ccc(C(=O)O)cc1 | inactive: 12.1%
COc1ccc(CCNc2nc(C)cc(C)n2)cc1OC | inactive: 8.85%
C/C(CC(=O)Nc1ccc(N(C)C)cc1)=N\NC(=O)Cc1csc(N)n1 | inactive: 6.16%
COC(=O)N/N=C/c1ccc(-c2ccc(Cl)cc2Cl)o1 | inactive: 8.11%
CCCN1C/C(=C/c2ccc3c(c2)OCO3)C(=O)/C(=C/c2ccc3c(c2)OCO3)C1 | inactive: -13.6%
O=C(Oc1cccc2cccnc12)c1cccc([N+](=O)[O-])c1 | inactive: -19.2%
COc1ccc(OC(=O)c2ccc(Cl)cc2)c(C(C)=O)c1 | inactive: 4.62%
O=C(O)C1CC(=O)N(c2ccc(OCc3c(F)cccc3Cl)cc2)C1 (stereo not drawn) | inactive: 2.25%
CC(C)C(=O)Nc1c2c(nn1-c1ccc(F)cc1)CS(=O)(=O)C2 | inactive: -15.5%
COC(=O)c1ccccc1C(=O)N1CCCC(CCC(=O)NCc2ccc(F)c(F)c2)C1 (stereo not drawn) | inactive: 7.05%
Cc1ccc(/C=N/NC(=O)c2ccoc2C)o1 | inactive: 8.32%
O=[N+]([O-])c1cccc(-c2ccc(C(=S)N3CCOCC3)o2)c1 | inactive: 19.8%
COc1ccc(S(=O)(=O)N2CCc3ccccc32)cc1C(=O)Nc1cccnc1 | inactive: 20%
CC(=O)NC(c1cccc([N+](=O)[O-])c1)c1ccc2cccnc2c1O (stereo not drawn) | inactive: -2.61%
CC(C)NC(=S)N1CCC(Cc2ccccc2)CC1 | inactive: 30.1%
COc1ccc(CC(NC(C)=O)C(=O)NC2CCN(S(=O)(=O)c3ccc(NC(C)=O)cc3)CC2)cc1 (stereo not drawn) | inactive: -2.17%
N#Cc1cccc(NC(=O)CNC(=O)Cc2ccccc2)c1 | inactive: 19.8%
O=C(COc1ccccc1)NS(=O)(=O)c1ccccc1 | inactive: 8.44%
Cc1cccc(C(=O)NCc2nnc(SCC(=O)NC3CCCC3)n2C)c1 | inactive: -17%
Cc1ccc(F)c(S(=O)(=O)NC(=O)C2(C)CCN2C(=O)CC2CCCCC2)c1 (stereo not drawn) | inactive: -13.5%

Structure (SMILES) | growth rescue (activation)
CSc1nsc(SCC(=O)Nc2ccc(OC(C)=O)cc2)n1 | inactive: 5.08%
O=C(Nc1ccc([N+](=O)[O-])cc1)C1(c2ccccc2)CCOCC1 | inactive: 16.9%
c1ccc(Cc2noc(CN3CCCN(C4Cc5ccccc5C4)CC3)n2)cc1 | inactive: 9.48%
O=[N+]([O-])c1ccccc1S(=O)(=O)NC1CCCCCCC1 | inactive: 26.5%
CC1CCN(C(=S)c2ccc(N(C)C)cc2)CC1 | inactive: 4.62%
COC(=O)CCNc1n[nH]c(=O)[nH]c1=O | inactive: -18.9%
Brc1ccc(-c2cn3ccccc3n2)cc1 | inactive: -5.21%
CC1(C)CC(=O)C2=C(C1)NC1=C(C(=O)c3ccccc31)C2c1cc([N+](=O)[O-])ccc1O (stereo not drawn) | inactive: 15.8%
CN(CCCCCC(=O)/C=N/O)Cc1ccccc1 | inactive: 14.5%
Cc1cc(C)nc(NS(=O)(=O)c2cccs2)c1 | inactive: -8.83%
COC(=O)c1ccc(-n2nnc(-c3nc(-c4ccccc4Cl)no3)c2C)cc1 | inactive: 21.6%
CN(C)CCCN(Cc1ccccc1)C(=S)Nc1cccc(C(F)(F)F)c1 | inactive: 17.3%
CSc1ccccc1COC(=O)Nc1ccccc1C | inactive: 11.6%
CCOC(=O)C1=C(C)NC(C)=C(C(=O)OCC)C1C(=O)OCC(=O)NCc1ccco1 | inactive: -2.46%
COc1ccc2[nH]cc(CCn3ccc(=O)c(C)c3C)c2c1 | inactive: 15.9%
Oc1c(C=C2N=c3ccccc3=N2)sc(=S)n1C1CCCCC1 | inactive: 15.5%
CSCCC(NC(N)=O)C(=O)Nc1ccc2ccccc2c1 (stereo not drawn) | inactive: 6.32%
O=C(CN1C(=O)NC(Cc2c[nH]c3ccccc23)C1=O)Nc1ccc(F)cc1F (stereo not drawn) | inactive: -10.6%
O=C(CCC(=O)Nc1ccc(F)cc1)N/N=C/c1c[nH]c2ccccc12 | inactive: 11.1%
CC(=O)Nc1ccccc1NC(=O)C/C(C)=N/NC(=O)c1cccnc1 | inactive: -2%
CCCNC(=O)c1ccc2c(c1)nc(C)n2-c1cccc(C)c1 | inactive: 2.57%
CCCC(=O)N1CCC1(C)C(=O)Nc1cc(-c2ccccc2)nn1C (stereo not drawn) | inactive: 5.5%

Structure (SMILES) | growth rescue (activation)
CSc1ccc(S(=O)(=O)N2CCC(C(=O)Nc3ccc(C(N)=O)cc3)CC2)cc1 | inactive: -22.2%
CCOc1ccccc1Nc1nc(-c2sc(C)nc2C)cs1 | inactive: 6.86%
COc1ccc(-n2nc(C(=O)NCC(=O)NCCCN3CC(C)CC(C)C3)c3ccccc3c2=O)cc1OC (stereo not drawn) | inactive: 10.4%
Cc1cc(C(=O)N2CCCC(C(=O)c3ccc4ccccc4c3)C2)nn1C (stereo not drawn) | inactive: 21.9%
CC(=O)Nc1ccc(NC(=O)c2c(C)nn(Cc3ccccc3Cl)c2C)cc1 | inactive: -8.82%
Oc1[nH]c2ccc(Br)cc2c1N=Nc1ccc(C(F)(F)F)cn1 | inactive: 19.3%
O=C(Nc1c(C(=O)O)[nH]c2ccc(F)cc12)c1cccc(C(F)(F)F)c1 | inactive: 0.647%
O=C(CSc1nc2nn(-c3ccccc3)c(=O)c-2c2n1CCCCC2)Nc1ccccc1[N+](=O)[O-] | inactive: 16.5%
Cc1ccsc1C(=O)NCCc1ccc(S(N)(=O)=O)cc1 | inactive: 4.4%
Cc1cc(=O)oc2cc(OCC(=O)Nc3cccnc3)ccc12 | inactive: -0.0571%
Cc1nnc(NC(=O)NC(C)N2C(=O)C3C4C=CC(C4)C3C2=O)s1 (stereo not drawn) | inactive: -0.496%
CC(C)c1cc(C(=O)N2CCCC(CCC(=O)N3CCN(c4ccccn4)CC3)C2)no1 (stereo not drawn) | inactive: -0.612%
COc1cccc(C(=O)NC(=S)Nc2ccc([N+](=O)[O-])cc2C)c1 | inactive: 15.3%
Cc1cc(OCC(=O)O/N=C(\N)c2ccccc2)ccc1Cl | inactive: 38.9%
O=C(Nc1ccccc1Cl)NC1(C(=O)NCC2CCCO2)CCCCC1 (stereo not drawn) | inactive: 2.24%
NC(=O)c1ccc[n+](CCC[n+]2cccc(C(N)=O)c2)c1 | inactive: 12.4%
COCCCNC(=O)CCc1ccccc1 | inactive: -3.87%
O=C(COC(=O)CCC1CCCC1)Nc1ccccc1Sc1ccccc1 | inactive: 8.53%
O=C(O)CC1S/C(=N/N=C/C=C/c2ccccc2[N+](=O)[O-])NC1=O (stereo not drawn) | inactive: 2.03%
Cc1cc(Cl)ccc1OCC(=O)NNC(=O)c1ccc(=O)[nH]c1 | inactive: -4.72%
Cc1cccc(C)c1-n1nnnc1C(C)(C)N1CCN(N=O)CC1 | inactive: 15.1%
N#CCCN(C(=O)CSc1nc2nc(-c3cccs3)cc(C(F)(F)F)c2c(=O)[nH]1)c1ccccc1 | inactive: 24.5%

Structure (SMILES) | growth rescue (activation)
COc1ccccc1S(=O)(=O)Nc1cccc(S(=O)(=O)N2CCCC2)c1 | inactive: -7.49%
CCOc1ccc2[nH]c3c(NCCc4ccc(OC)c(OC)c4)ncnc3c2c1 | inactive: 2.75%
O=C(Nc1cccc(Cl)c1Cl)c1csc([C@H]2C[C@H](O)[C@@H](CO)O2)n1 | inactive: -1.33%
CCC(=O)NC(=S)Nc1ccc(NC(=O)CC)cc1 | inactive: -6.81%
O=S(=O)(c1cccc(Br)c1)N1CCN(CCc2ccccc2)CC1 | inactive: 4.99%
CC(=O)Nc1c(C(=O)O)[nH]c2ccccc12 | inactive: 7.33%
COc1cc(C(C)=O)ccc1COc1ccc(C(=O)O)cc1OC | inactive: -32.3%
COc1ccccc1NC(=O)CNc1ccc(F)c(Cl)c1 | inactive: 14.9%
CCOC(=O)c1csc(N)n1 | inactive: 3%
C=CCN1C(=O)/C(=N/n2cnnc2)c2ccccc21 | inactive: 25.4%
Cc1ccc(N(Cc2ccc(C(=O)NN=C3CCN(C)CC3)cc2)S(C)(=O)=O)cc1C | inactive: -15.3%
NS(=O)(=O)c1ccc(CCNC(=O)c2cccc3ccccc23)cc1 | inactive: 5.12%
CCOC(=O)C1CCCN(C(=O)CSc2ccccc2)C1 (stereo not drawn) | inactive: 23.5%
O=C(Nc1ccccc1Cl)c1cc(C2CCCN(C(=O)c3cccc(O)c3)C2)on1 (stereo not drawn) | inactive: 13.8%
COc1ccc(Nc2cc(Nc3ccc(OC)cc3)ncn2)cc1 | inactive: 12.5%
CCCCn1c2c(c(=N)c3c1CCC3)CCC2 | inactive: -4.81%
O=C(CCC(=O)Nc1ccccc1)NNC(=O)CCc1ccccc1 | inactive: -1.93%
CCOc1ncccc1C(=O)OCC(=O)Nc1cc(S(=O)(=O)N(CC)CC)ccc1C | inactive: 3.45%
O=C(Nc1ccccc1)c1ccc(Nc2c([N+](=O)[O-])cc([N+](=O)[O-])c3ccccc23)cc1 | inactive: -12.1%
O=S(=O)(c1ccc(Br)cc1)N1CCCN(Cc2ccccc2F)CC1 | inactive: -14.4%

— PubChem BioAssay AID1347073 (National Center for Advancing Translational Sciences (NCATS), 2019)
